# Test results as given in the supplement of paper PMC12297408.
# Counter-ions that a name gives are not always drawn. Screen size: about 1,300 compounds; about 40 (3%) showed activity. This is one part of the list.
# Test system: Plasmodium falciparum NF54/iGP1_RE9H ulg8 stage V gametocytes
# Experiment: gametocyte viability (luciferase signal relative to DMSO control) (% of DMSO control); higher = less gametocytocidal activity, active = 50 or less
# Details: exposure time: 72 h
# Method in brief: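 Gametocyte viability is reported relative to the average of DMSO vehicle wells on the same plate. The assay used day-12 stage V NF54/iGP1_RE9Hulg8 gametocytes at ~2.5% gametocytemia and 3% hematocrit, in 0.5% Albumax II medium, added to 96-well plates of compounds spotted in nanolitre volumes for final 10 µM or 1 µM, one well each. After 72 h at 37 °C, 90 µl was mixed with 10 µl D-luciferin (30 mg/ml), and luminescence was recorded with an IVIS Lumina II.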
SMILES,gametocyte viability (concentration: 1 µM),gametocyte viability (concentration: 10 µM)
Cc1cc2c(cc1S(N)(=O)=O)S(=O)(=O)CCC2 [Meticrane],inactive: 88.7,inactive: 83.8
NCCNCCNCCNCCN [Tetraethylenepentamine pentahydrochloride],inactive: 97.2,inactive: 94.6
CC(C)c1ccc2oc3nc(N)c(C(=O)O)cc3c(=O)c2c1 [Amlexanox],inactive: 80,inactive: 81.5
CC1(C)S[C@@H]2[C@H](NC(=O)[C@H](NC(=O)N3CCNC3=O)c3ccccc3)C(=O)N2[C@H]1C(=O)O [Azlocillin sodium salt],inactive: 87.1,inactive: 85.9
COC(=O)Nc1nc2cc(C(=O)c3ccccc3)ccc2[nH]1 [Mebendazole],inactive: 90.9,inactive: 100
O=C(O)c1cccnc1Nc1cccc(C(F)(F)F)c1 [Niflumic acid],inactive: 86.5,inactive: 81.3
Cc1oncc1C(=O)Nc1ccc(C(F)(F)F)cc1 [Leflunomide],inactive: 76.5,inactive: 79.8
COc1ccc(C(Cl)=C(c2ccc(OC)cc2)c2ccc(OC)cc2)cc1 [Chlorotrianisene],inactive: 91.8,inactive: 81.4
CCOC(=O)[C@H](CCc1ccccc1)N[C@@H](C)C(=O)N1Cc2ccccc2C[C@H]1C(=O)O [Quinapril HCl],inactive: 98.4,inactive: 98.4
CC(CCc1ccccc1)NCC(O)c1ccc(O)c(C(N)=O)c1 (configuration not stated) [Labetalol hydrochloride],inactive: 96.5,inactive: 94.4
Cc1onc(-c2c(Cl)cccc2Cl)c1C(=O)N[C@@H]1C(=O)N2[C@@H]1SC(C)(C)[C@@H]2C(=O)O [Dicloxacillin sodium salt hydrate],inactive: 89.9,inactive: 84.8
CN1C(C)(C)CCCC1(C)C [Pempidine tartrate],inactive: 99.3,inactive: 97.1
CC[N+](C)(C)Cc1ccccc1Br [Bretylium tosylate],inactive: 100,inactive: 100
C[N+](C)(C)CCCCCC[N+](C)(C)C [Hexamethonium dibromide dihydrate],inactive: 87.5,inactive: 93.5
CN(C)/N=N/c1[nH]cnc1C(N)=O [Dacarbazine],inactive: 87.7,inactive: 90.7
COc1ccc([C@@H]2CC(=O)c3c(O)cc(O[C@@H]4O[C@H](CO[C@@H]5O[C@@H](C)[C@H](O)[C@@H](O)[C@H]5O)[C@@H](O)[C@H](O)[C@H]4O)cc3O2)cc1O [Hesperidin],inactive: 78.3,inactive: 85.2
CC(C)(C(=O)O)c1ccc(C(O)CCCN2CCC(C(O)(c3ccccc3)c3ccccc3)CC2)cc1 (configuration not stated) [Fexofenadine HCl],inactive: 83.4,inactive: 82.4
NS(=O)(=O)c1cc(C(=O)O)cc(N2CCCC2)c1Oc1ccccc1 [Piretanide],inactive: 85.9,inactive: 86.9

SMILES,gametocyte viability (concentration: 1 µM),gametocyte viability (concentration: 10 µM)
Cc1cc(C(C)(C)C)c(O)c(C)c1CC1=NCCN1 [Oxymetazoline hydrochloride],inactive: 89.6,inactive: 90.7
CN(C)CCCN1c2ccccc2Sc2ccccc21 [Promazine hydrochloride],inactive: 95.7,inactive: 96.8
CC(C(=O)O)c1ccc2c(c1)Cc1cccnc1O2 (configuration not stated) [Pranoprofen],inactive: 93.6,inactive: 94.8
CSc1ccc2c(c1)C(N1CCN(C)CC1)Cc1ccccc1S2 (configuration not stated) [Methiothepin maleate],inactive: 86.1,inactive: 75.3
Cc1c(C)c2c(c(C)c1O)CCC(C)(COc1ccc(CC3SC(=O)NC3=O)cc1)O2 (configuration not stated) [Troglitazone],inactive: 81.7,inactive: 76.3
COC(c1ccccc1)(c1ccccc1)[C@H](Oc1nc(C)cc(C)n1)C(=O)O [Ambrisentan],inactive: 80.3,inactive: 85.6
COc1ccc2c(c1)c(CC(=O)O)c(C)n2C(=O)c1ccc(Cl)cc1 [Indomethacin],inactive: 89,inactive: 93.3
CN1CCC(=C2c3ccccc3CCc3cccnc32)CC1 [Azatadine maleate],inactive: 79.7,inactive: 80.8
Nc1nc2ccc(OC(F)(F)F)cc2s1 [Riluzole hydrochloride],inactive: 88.4,inactive: 81.5
C(=C\c1ccccc1)/CN1CCN(C(c2ccccc2)c2ccccc2)CC1 [Cinnarizine],inactive: 87,inactive: 85.1
O=C(C1CCCCC1)N1CC(=O)N2CCc3ccccc3C2C1 (configuration not stated) [Praziquantel],inactive: 92.8,inactive: 76.4
CC(=O)NCCCS(=O)(=O)O [Acamprosate calcium],inactive: 80.4,inactive: 79.8
CCOC(=O)O[C@]1(C(=O)COC(=O)CC)CC[C@H]2[C@@H]3CCC4=CC(=O)C=C[C@]4(C)[C@H]3[C@@H](O)C[C@@]21C [Prednicarbate],inactive: 91.7,inactive: 90.6
CC(C)(C)NCC(O)COc1cccc2c1CCC(=O)N2 (configuration not stated) [Carteolol hydrochloride],inactive: 87.2,inactive: 84
CN(C)CCN1C(=O)c2ccccc2N(C)c2ccccc21 [Dibenzepine hydrochloride],inactive: 84.8,inactive: 91.3
COc1ccc(OC)c(C(O)CNC(=O)CN)c1 (configuration not stated) [Midodrine hydrochloride],inactive: 82.8,inactive: 88.6
CN1CCN(CCCN2c3ccccc3Sc3ccc(C(F)(F)F)cc32)CC1 [Trifluoperazine dihydrochloride],inactive: 82.8,active: 46.8
CC[C@H](C)[C@H](N)C1=N[C@H](C(=O)N[C@@H](CC(C)C)C(=O)N[C@H](CCC(=O)O)C(=O)N[C@H](C(=O)N[C@H]2CCCCNC(=O)[C@H](CC(N)=O)NC(=O)[C@@H](CC(=O)O)NC(=O)[C@H](Cc3cnc[nH]3)NC(=O)[C@@H](Cc3ccccc3)NC(=O)[C@H]([C@@H](C)CC)NC(=O)[C@@H](CCCN)NC2=O)[C@@H](C)CC)CS1 [Bacitracin],inactive: 90.8,inactive: 84.3
